# Measured values taken from the supplement of paper PMC8728848.
# The other results are listed elsewhere or left out.
# B1: MIG/CXCL9 (Homo sapiens) (protein)
# chain: TPVVRKGRCSCISTNQGTIHLQSLKDLKQFAPSPSCEKIEIIIATLKNGVQTCLNPDSADVKELIKKTEKQVSQKKKQKNGKKHQKKKVLKVRKSQRSRQKKTT
# Legend:
# Assay in all cases: glycan array binding signal (z-score within array); higher = stronger binding
# Conditions in all cases: glycan notation: IUPAC condensed, linker removed
# [1] = molecular target: Fuc(a1-2)Gal
# Procedure, shortened: (§1)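 Negative Z-scores can be read as non-binding. The Z-score is calculated within each array and then averaged across arrays of one protein sequence at different concentrations or buffers and across linkers. Arrays, 3228 in all, were curated from the Consortium for Functional Glycomics database and kept only where the protein sequence was available.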
# [2] = molecular target: Fuc(a1-2)Gal(b1-3)GalNAc
# Procedure, shortened: as §1
# [3] = molecular target: Fuc(a1-2)Gal(b1-3)GalNAc(b1-3)Gal
# Procedure, shortened: as §1
# [4] = molecular target: Fuc(a1-2)Gal(b1-3)GalNAc(b1-3)Gal(a1-4)Gal(b1-4)Glc
# Procedure, shortened: as §1
# [5] = molecular target: Fuc(a1-2)Gal(b1-3)GalNAc(b1-4)[Neu5Ac(a2-3)]Gal(b1-4)Glc
# Procedure, shortened: as §1
# [6] = molecular target: Fuc(a1-2)Gal(b1-3)GlcNAc
# Procedure, shortened: as §1
# [7] = molecular target: Fuc(a1-2)Gal(b1-3)GlcNAc(b1-3)Gal(b1-4)Glc
# Procedure, shortened: as §1
# [8] = molecular target: Fuc(a1-2)Gal(b1-3)[Fuc(a1-4)]GlcNAc
# Procedure, shortened: as §1
# [9] = molecular target: Fuc(a1-2)Gal(b1-4)Glc
# Procedure, shortened: as §1
# [10] = molecular target: Fuc(a1-2)Gal(b1-4)GlcNAc
# Procedure, shortened: as §1
# [11] = molecular target: Fuc(a1-2)Gal(b1-4)GlcNAc(b1-3)Gal(b1-4)GlcNAc
# Procedure, shortened: as §1
# [12] = molecular target: Fuc(a1-2)Gal(b1-4)GlcNAc(b1-3)Gal(b1-4)GlcNAc(b1-3)Gal(b1-4)GlcNAc
# Procedure, shortened: as §1
# [13] = molecular target: Fuc(a1-2)Gal(b1-4)[Fuc(a1-3)]GlcNAc
# Procedure, shortened: as §1
# [14] = molecular target: Fuc(a1-2)Gal(b1-4)[Fuc(a1-3)]GlcNAc(b1-3)Gal(b1-4)[Fuc(a1-3)]GlcNAc
# Procedure, shortened: as §1
# [15] = molecular target: Fuc(a1-2)Gal(b1-4)[Fuc(a1-3)]GlcNAc(b1-3)Gal(b1-4)[Fuc(a1-3)]GlcNAc(b1-3)Gal(b1-4)[Fuc(a1-3)]GlcNAc
# Procedure, shortened: as §1
# [16] = molecular target: Fuc(a1-2)GlcNAc
# Procedure, shortened: as §1
# [17] = molecular target: Fuc(a1-2)[Gal(a1-3)]Gal
# Procedure, shortened: as §1
# [18] = molecular target: Fuc(a1-2)[Gal(a1-3)]Gal(b1-3)GlcNAc
# Procedure, shortened: as §1
# [19] = molecular target: Fuc(a1-2)[Gal(a1-3)]Gal(b1-4)Glc
# Procedure, shortened: as §1
# [20] = molecular target: Fuc(a1-2)[Gal(a1-3)]Gal(b1-4)GlcNAc
# Procedure, shortened: as §1
# [21] = molecular target: Fuc(a1-2)[Gal(a1-3)]Gal(b1-4)[Fuc(a1-3)]GlcNAc
# Procedure, shortened: as §1
# [22] = molecular target: Fuc(a1-2)[Gal(a1-4)]Gal(b1-4)GlcNAc
# Procedure, shortened: as §1
# [23] = molecular target: Fuc(a1-2)[GalNAc(a1-3)]Gal
# Procedure, shortened: as §1
# [24] = molecular target: Fuc(a1-2)[GalNAc(a1-3)]Gal(b1-3)GlcNAc
# Procedure, shortened: as §1
# [25] = molecular target: Fuc(a1-2)[GalNAc(a1-3)]Gal(b1-4)Glc
# Procedure, shortened: as §1
# [26] = molecular target: Fuc(a1-2)[GalNAc(a1-3)]Gal(b1-4)GlcNAc
# Procedure, shortened: as §1
# [27] = molecular target: Fuc(a1-2)[GalNAc(a1-3)]Gal(b1-4)[Fuc(a1-3)]GlcNAc
# Procedure, shortened: as §1
# [28] = molecular target: Fuc(a1-2)[GalNAc(a1-4)]Gal(b1-4)GlcNAc
# Procedure, shortened: as §1
# [29] = molecular target: Fuc(a1-2)[GalNAc(b1-3)]Gal
# Procedure, shortened: as §1
# [30] = molecular target: Fuc(a1-3)GlcNAc
# Procedure, shortened: as §1
# [31] = molecular target: Fuc(a1-3)[Gal(b1-4)]GlcNAc
# Procedure, shortened: as §1
# [32] = molecular target: Fuc(a1-3)[Gal(b1-4)]GlcNAc(b1-4)Gal(b1-4)[Fuc(a1-3)]GlcNAc
# Procedure, shortened: as §1
# [33] = molecular target: Fuc(a1-3)[Gal(b1-4)]GlcNAc(b1-4)Gal(b1-4)[Fuc(a1-3)]GlcNAc(b1-4)Gal(b1-4)[Fuc(a1-3)]GlcNAc
# Procedure, shortened: as §1
# [34] = molecular target: Fuc(a1-3)[Gal3S(b1-4)]GlcNAc
# Procedure, shortened: as §1
# [35] = molecular target: Fuc(a1-3)[GalNAc(b1-4)]GlcNAc
# Procedure, shortened: as §1
# [36] = molecular target: Fuc(a1-4)GlcNAc
# Procedure, shortened: as §1
# [37] = molecular target: Fuc(b1-3)GlcNAc
# Procedure, shortened: as §1
# [38] = molecular target: Gal(a1-2)Gal
# Procedure, shortened: as §1
# [39] = molecular target: Gal(a1-3)Gal
# Procedure, shortened: as §1
# [40] = molecular target: Gal(a1-3)Gal(b1-3)GlcNAc
# Procedure, shortened: as §1
# [41] = molecular target: Gal(a1-3)Gal(b1-4)Glc
# Procedure, shortened: as §1
# [42] = molecular target: Gal(a1-3)Gal(b1-4)GlcNAc
# Procedure, shortened: as §1
# [43] = molecular target: Gal(a1-3)Gal(b1-4)[Fuc(a1-3)]GlcNAc
# Procedure, shortened: as §1
# [44] = molecular target: Gal(a1-3)GalNAc
# Procedure, shortened: as §1
# [45] = molecular target: Gal(a1-3)[Gal(a1-4)]Gal(b1-4)GlcNAc
# Procedure, shortened: as §1
# [46] = molecular target: Gal(a1-4)Gal(b1-4)Glc
# Procedure, shortened: as §1
# [47] = molecular target: Gal(a1-4)Gal(b1-4)GlcNAc
# Procedure, shortened: as §1
# [48] = molecular target: Gal(a1-4)GlcNAc
# Procedure, shortened: as §1
# [49] = molecular target: Gal(a1-6)Glc
# Procedure, shortened: as §1
# [50] = molecular target: Gal(b1-2)Gal
# Procedure, shortened: as §1
# [51] = molecular target: Gal(b1-3)Gal
# Procedure, shortened: as §1
# [52] = molecular target: Gal(b1-3)GalNAc
# Procedure, shortened: as §1
# [53] = molecular target: Gal(b1-3)GalNAc(b1-3)Gal(a1-4)Gal(b1-4)Glc
# Procedure, shortened: as §1
# [54] = molecular target: Gal(b1-3)GalNAc(b1-4)Gal(b1-4)Glc
# Procedure, shortened: as §1
# [55] = molecular target: Gal(b1-3)GalNAc(b1-4)[Neu5Ac(a2-3)]Gal(b1-4)Glc
# Procedure, shortened: as §1
# [56] = molecular target: Gal(b1-3)GlcNAc
# Procedure, shortened: as §1
# [57] = molecular target: Gal(b1-3)GlcNAc(b1-3)Gal(b1-4)Glc
# Procedure, shortened: as §1
# [58] = molecular target: Gal(b1-3)GlcNAc(b1-3)Gal(b1-4)GlcNAc
# Procedure, shortened: as §1
# [59] = molecular target: Gal(b1-3)[Fuc(a1-4)]GlcNAc
# Procedure, shortened: as §1
# [60] = molecular target: Gal(b1-3)[Fuc(a1-4)]GlcNAc(b1-3)Gal(b1-4)GlcNAc
# Procedure, shortened: as §1
# [61] = molecular target: Gal(b1-3)[Fuc(a1-4)]GlcNAc(b1-3)Gal(b1-4)[Fuc(a1-3)]GlcNAc
# Procedure, shortened: as §1
# [62] = molecular target: Gal(b1-3)[GlcNAc(b1-6)]GalNAc
# Procedure, shortened: as §1
# [63] = molecular target: Gal(b1-3)[Neu5Ac(a2-6)]GalNAc
# Procedure, shortened: as §1
# [64] = molecular target: Gal(b1-3)[Neu5Ac(a2-6)]GlcNAc(b1-6)Gal(b1-4)Glc
# Procedure, shortened: as §1
# [65] = molecular target: Gal(b1-3)[Neu5Ac(b2-6)]GalNAc
# Procedure, shortened: as §1
# [66] = molecular target: Gal(b1-4)GalNAc(a1-3)[Fuc(a1-2)]Gal(b1-4)GlcNAc
# Procedure, shortened: as §1
# [67] = molecular target: Gal(b1-4)GalNAc(b1-3)[Fuc(a1-2)]Gal(b1-4)GlcNAc
# Procedure, shortened: as §1
# [68] = molecular target: Gal(b1-4)Glc
# Procedure, shortened: as §1
# [69] = molecular target: Gal(b1-4)Glc6S
# Procedure, shortened: as §1
# [70] = molecular target: Gal(b1-4)GlcNAc
# Procedure, shortened: as §1
# [71] = molecular target: Gal(b1-4)GlcNAc(b1-2)Man(a1-3)[Gal(b1-4)GlcNAc(b1-2)Man(a1-6)]Man(b1-4)GlcNAc(b1-4)GlcNAc
# Procedure, shortened: as §1
# [72] = molecular target: Gal(b1-4)GlcNAc(b1-3)Gal(b1-4)Glc
# Procedure, shortened: as §1
# [73] = molecular target: Gal(b1-4)GlcNAc(b1-3)Gal(b1-4)GlcNAc
# Procedure, shortened: as §1
# [74] = molecular target: Gal(b1-4)GlcNAc(b1-3)Gal(b1-4)GlcNAc(b1-3)Gal(b1-4)GlcNAc
# Procedure, shortened: as §1
# [75] = molecular target: Gal(b1-4)GlcNAc(b1-3)Gal(b1-4)[Fuc(a1-3)]GlcNAc(b1-3)Gal(b1-4)[Fuc(a1-3)]GlcNAc
# Procedure, shortened: as §1
binder,measurement,setting,value
B1,glycan array binding signal (z-score),[1],-0.025
same,glycan array binding signal (z-score),[2],-0.29
same,glycan array binding signal (z-score),[3],-0.053
same,glycan array binding signal (z-score),[4],-0.251
same,glycan array binding signal (z-score),[5],-0.193
same,glycan array binding signal (z-score),[6],-0.293
same,glycan array binding signal (z-score),[7],-0.456
same,glycan array binding signal (z-score),[8],-0.459
same,glycan array binding signal (z-score),[9],-0.36
same,glycan array binding signal (z-score),[10],-0.298
same,glycan array binding signal (z-score),[11],-0.298
same,glycan array binding signal (z-score),[12],-0.442
same,glycan array binding signal (z-score),[13],-0.26
same,glycan array binding signal (z-score),[14],-0.383
same,glycan array binding signal (z-score),[15],-0.37
same,glycan array binding signal (z-score),[16],-0.36
same,glycan array binding signal (z-score),[17],-0.368
same,glycan array binding signal (z-score),[18],-0.427
same,glycan array binding signal (z-score),[19],-0.327
same,glycan array binding signal (z-score),[20],-0.314
same,glycan array binding signal (z-score),[21],-0.279
same,glycan array binding signal (z-score),[22],-0.079
same,glycan array binding signal (z-score),[23],-0.409
same,glycan array binding signal (z-score),[24],-0.28
same,glycan array binding signal (z-score),[25],-0.079
same,glycan array binding signal (z-score),[26],-0.244
same,glycan array binding signal (z-score),[27],-0.206
same,glycan array binding signal (z-score),[28],-0.483
same,glycan array binding signal (z-score),[29],-0.4
same,glycan array binding signal (z-score),[30],-0.28
same,glycan array binding signal (z-score),[31],-0.333
same,glycan array binding signal (z-score),[32],-0.281
same,glycan array binding signal (z-score),[33],-0.33
same,glycan array binding signal (z-score),[34],-0.445
same,glycan array binding signal (z-score),[35],-0.307
same,glycan array binding signal (z-score),[36],-0.251
same,glycan array binding signal (z-score),[37],-0.209
same,glycan array binding signal (z-score),[38],-0.269
same,glycan array binding signal (z-score),[39],-0.114
same,glycan array binding signal (z-score),[40],-0.409
same,glycan array binding signal (z-score),[41],-0.378
same,glycan array binding signal (z-score),[42],-0.15
same,glycan array binding signal (z-score),[43],-0.261
same,glycan array binding signal (z-score),[44],-0.247
same,glycan array binding signal (z-score),[45],0.463
same,glycan array binding signal (z-score),[46],0.15
same,glycan array binding signal (z-score),[47],-0.143
same,glycan array binding signal (z-score),[48],-0.24
same,glycan array binding signal (z-score),[49],0.289
same,glycan array binding signal (z-score),[50],-0.257
same,glycan array binding signal (z-score),[51],-0.318
same,glycan array binding signal (z-score),[52],0.088
same,glycan array binding signal (z-score),[53],-0.322
same,glycan array binding signal (z-score),[54],-0.345
same,glycan array binding signal (z-score),[55],-0.331
same,glycan array binding signal (z-score),[56],-0.174
same,glycan array binding signal (z-score),[57],-0.383
same,glycan array binding signal (z-score),[58],-0.35
same,glycan array binding signal (z-score),[59],-0.301
same,glycan array binding signal (z-score),[60],-0.441
same,glycan array binding signal (z-score),[61],-0.501
same,glycan array binding signal (z-score),[62],-0.311
same,glycan array binding signal (z-score),[63],-0.165
same,glycan array binding signal (z-score),[64],-0.348
same,glycan array binding signal (z-score),[65],-0.32
same,glycan array binding signal (z-score),[66],-0.412
same,glycan array binding signal (z-score),[67],-0.339
same,glycan array binding signal (z-score),[68],-0.287
same,glycan array binding signal (z-score),[69],0.015
same,glycan array binding signal (z-score),[70],-0.362
same,glycan array binding signal (z-score),[71],-0.436
same,glycan array binding signal (z-score),[72],-0.02
same,glycan array binding signal (z-score),[73],-0.3
same,glycan array binding signal (z-score),[74],-0.479
same,glycan array binding signal (z-score),[75],-0.446
